Data as given in PubChem BioAssay AID1159614 (National Center for Advancing Translational Sciences (NCATS), 2016).
Out of some 45,000 compounds screened, about 65 (0.1%) were called active. Calls follow the shape of the dose curve; as a rule, active = well fitted activation curve with a large enough effect; inconclusive = small, poorly fitted or top-dose-only effect; inactive = no such curve, though single readings can be large or run the other way. Some of the results follow.

Biological target: Galactocerebrosidase (Homo sapiens) (UniProt P54803)
UniProt P54803, sequence (P54803 whole entry, looked up): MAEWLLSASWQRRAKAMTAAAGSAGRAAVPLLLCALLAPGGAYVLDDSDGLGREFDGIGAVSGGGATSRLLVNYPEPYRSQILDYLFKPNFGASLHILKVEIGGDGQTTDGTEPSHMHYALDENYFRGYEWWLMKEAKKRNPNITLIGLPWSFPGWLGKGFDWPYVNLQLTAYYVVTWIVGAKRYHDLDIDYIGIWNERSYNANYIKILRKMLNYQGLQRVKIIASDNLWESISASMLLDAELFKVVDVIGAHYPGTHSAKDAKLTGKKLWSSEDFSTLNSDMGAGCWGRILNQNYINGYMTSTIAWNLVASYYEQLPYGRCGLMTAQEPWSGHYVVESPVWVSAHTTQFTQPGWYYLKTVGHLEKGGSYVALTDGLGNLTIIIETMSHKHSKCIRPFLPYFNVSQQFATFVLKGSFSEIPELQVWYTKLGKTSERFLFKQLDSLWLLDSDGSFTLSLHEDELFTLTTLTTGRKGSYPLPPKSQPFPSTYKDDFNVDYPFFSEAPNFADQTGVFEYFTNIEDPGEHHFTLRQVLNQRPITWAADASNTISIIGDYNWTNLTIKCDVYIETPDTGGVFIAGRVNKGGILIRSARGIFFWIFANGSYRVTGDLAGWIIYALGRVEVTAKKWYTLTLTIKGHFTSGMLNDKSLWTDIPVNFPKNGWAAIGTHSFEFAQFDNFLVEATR
Assay: A Novel Cell-Based Assay to Identify Small Molecules for B -Galactocerebrosidase; also: 0% is about no effect; nearly all actives have a fitted effect of over 65% in size
Conditions: 145M-Twi-hGALC-G270D cells (Twitcher mouse brain line with human GALC G270D), HMU-beta-Gal fluorescence, 48 h; series mostly up to 57.5 µM; activation: at the top concentration
Summary of the method: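 Live 145M-Twi cells (Twitcher mouse brain-derived, GALC-null) stably expressing human GALC-G270D, with a wild-type GALC line, were compound-treated. Residual GALC activity was then read as fluorescence from 0.1 mM final HMU-β-gal at pH 5.2; higher signal means activation.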

activation, inactive:
COc1ccc(NC(=O)CC2Oc3ccc(C)cc3NC2=O)cc1Cl (stereo not drawn) -3.14%
COc1cccc(C(=O)N(Cc2cccc(F)c2)C2CCS(=O)(=O)C2)c1 (stereo not drawn) -15.2%
COc1ccc(Cn2ccnc2SCC(=O)Nc2ccc3c(c2)OCCO3)cc1 -8.56%
Cc1ccc2c(c1)N(CC(=O)Nc1ccccc1C(F)(F)F)C(=O)c1cccnc1O2 -0.345%
CCOC(=O)c1c(NC(C)=O)c2c3c(sc2n1Cc1c(C)cc(C)cc1C)CCCC3 -13.6%
CCOc1ccc(N(CC(=O)NCc2ccc(OC)cc2)S(=O)(=O)c2c(C)[nH]c(=O)[nH]c2=O)cc1 -15.5%
CCOC(=O)c1cc2c(=O)n3ccccc3nc2n(Cc2ccco2)c1=NC(=O)c1ccc(C(C)(C)C)cc1 -10.3%
COc1cccc(OC)c1C(=O)Nc1ccc(-c2nc3ncccc3o2)cc1 -16.9%
O=C(Nc1cccc(F)c1)c1ccc2oc(=O)n(Cc3ccccc3)c2c1 1.17%
Cc1c(Cl)cccc1NC(=O)c1oc2ccc(S(=O)(=O)N3CCCCCC3)cc2c1C -22%
CCOC(=O)c1cccnc1SCC(=O)N(CC)c1cccc(C)c1 -12.7%
CCOC(=O)c1ccc(NC(=O)c2c(NCc3sccc3C)sc3c2CCC(C)C3)cc1 (stereo not drawn) -12.1%
NC(=O)c1nc(Nc2ccccc2)sc1NC(=O)c1c(F)cccc1F -19%
CCOCCCNC(=O)c1c[nH]c2ccc(S(=O)(=O)N(C)c3ccc(Cl)cc3F)cc2c1=O -20%
CN1CCN(C(CNC(=O)C(=O)Nc2ccc(Cl)cc2)c2cccnc2)CC1 (stereo not drawn) -11.3%
Cc1ccc(C)c(N2CCN(C(=O)CCc3nnc4n(C)c(=O)c5ccccc5n34)CC2)c1 -12%
CC(C)Cn1nc(NC(=O)c2cccc(Cl)c2)c2cc3ccccc3nc21 -11%
CCc1ccccc1NC(=O)c1oc(=O)c2ccccc2c1-c1ccccc1 -13%
CC(C)(C)c1ccc(OCC(=O)Nc2ccc(C(=O)OC3CCCCC3)cc2)cc1 -11.4%
COc1ccc(F)cc1S(=O)(=O)NCC(c1ccco1)S(=O)(=O)c1cccs1 (stereo not drawn) -17.8%
Cc1ccc2nc3c(cc(C#N)c(=O)n3-c3nnc(SCc4ccc(F)cc4)s3)c(=O)n2c1 8.22%
Cc1cccc2c(=O)cc(CSc3ccccc3NC(=O)C(C)C)[nH]c12 -7.67%
COc1cccc(NC(=O)CSc2nc(=O)n(Cc3cccnc3)c3c2CCC3)c1 -8.62%
CCCCOc1cccc(C(=O)Nc2sc3c(c2C(=O)OCC)CCCC3)c1 15.8%
CCCCCN(CCCCC)C(=O)C(CCC(=O)O)NC(=O)c1ccc(Cl)c(Cl)c1 (stereo not drawn) -10.8%
CCCn1c2ccccc2c2cnn(CC(=O)NCC3CCN(Cc4ccc(C)cc4)CC3)c(=O)c21 9.8%
CCOc1ccc(-n2c(SCc3ccccc3)nc3c([nH]c4ccccc43)c2=O)cc1 -1.9%
CCOc1ccccc1NC(=O)Cn1c(=O)n(CC(=O)NCc2ccccc2Cl)c(=O)c2sccc21 -4.97%
COc1ccc(OCC(=O)Nc2ccc(-c3nc4cc(Cl)ccc4o3)cc2)cc1 -16.5%
COc1ccc(CCNC(=O)CCCCn2c(=O)c3ccccc3n(Cc3cc(C)ccc3C)c2=O)cc1OC -0.24%
CCOc1ccc(CNC(=O)c2ccc3c(c2)c(C)c(C)n3C)cc1 -3.91%
CCCN(CCC)C(=O)Cn1c(=O)n(-c2ccc(OC)cc2OC)c(=O)c2c3c(sc21)CCC3 -7.15%
Cc1ccc(Sc2ccc(N3CCCC(C(=O)Nc4ccc(F)c(Cl)c4)C3)nn2)cc1 (stereo not drawn) -7.66%
COc1cccc(CNC(=O)N2CCc3c(sc4c3CCCC4)C2c2ccc(F)cc2)c1 (stereo not drawn) -6.65%
Cc1nc2ncnn2c(C)c1CCC(=O)N1CCN(c2ccc(F)cc2)CC1 -11.9%
Cc1cc(Nc2cccc(C(F)(F)F)c2)nc2ccc(NC(=O)Cc3ccc(Cl)cc3)cc12 -10.5%
Cc1cccc(C(=O)NCCc2nc3ccccc3n2Cc2ccccc2Cl)c1 -9.71%
Cc1ccc(NC(=O)Nc2nnc(SCC(=O)N3CCCCC3)s2)cc1 -23.5%
CC(C)c1ccc2c(c1)NC(c1ccc(F)cc1)=NC(c1cccs1)=N2 -14.7%
Fc1ccc(-c2noc3ncnc(NCCc4ccc(Cl)cc4)c23)cc1 -31.1%
COc1cccc(N2CC(NC(=O)c3cc4ccccc4o3)CC2=O)c1 (stereo not drawn) -11.4%
COc1ccc(Nc2cc(C)c3cc(NC(=O)c4ccccc4Cl)ccc3n2)cc1 -8.29%
CC(C)c1noc(-c2ccccc2OCC(=O)Nc2ccc([N+](=O)[O-])cc2)n1 4.09%
Cc1cc(=O)n(Cc2cccc(Cl)c2)c2c1c(C)nn2C -19.7%
CCn1c2c(c(=O)n3ncc(C(=O)N4CCN(c5ccccc5)CC4)c13)CN(Cc1ccc(OC)cc1)CC2 -22.7%
COc1ccc(OC)c(C2C(C(=O)Nc3ccc(C)cc3C)=C(C)Nc3c(C(=O)Nc4ccc(F)cc4)cnn32)c1 (stereo not drawn) -1.81%
CCOC(=O)CCc1c(C)nc2c(-c3ccccc3)c(C)[nH]n2c1=O -4.48%
CCOc1ccccc1CNC(=O)CSc1n[nH]c(-c2ccccc2)n1 -5.9%
O=C(CSc1nnc(-c2ccncc2)n1-c1ccccc1)Nc1ccc(F)cc1 -2.72%
COc1ccc(Cl)cc1NC(=O)CSc1nc(=O)n(Cc2ccco2)c2c1CCC2 -7.29%
COc1ccc(OC)c(-c2noc(CSc3nnc(-c4ccccc4)n3-c3ccccc3)n2)c1 -8.42%
Cc1ccc(-n2ncc3c(Nc4ccc(Oc5ccccc5)cc4)ncnc32)c(C)c1 -18.2%
COc1ccc(N2CCN(S(=O)(=O)c3ccc(C4CCCCC4)cc3)CC2)cc1 -4.18%
Cc1ccc(OCC(=O)Nc2nnc(S(=O)(=O)N3CCc4ccccc43)s2)cc1 -12.9%
CCOC(=O)c1ccccc1NC(=O)c1cn(CC(C)C)c(=O)c2cc(OC)c(OC)cc12 -7.29%
CC(C)NCC(O)c1ccc(O)c(O)c1 (stereo not drawn) -17.2%
Nc1ccc(O)cc1 -15.5%
COc1ccc(CNC(=O)Cn2c(=O)c3cccn3c3cccnc32)cc1 -11%
Cc1cccn2c(=O)c(C(=O)N3CCN(c4ccccc4F)CC3)cnc12 -3.08%
COc1ccc(C(=O)Nc2nnc(SCc3cc(=O)c4cc(C)ccc4[nH]3)s2)cc1OC -8.38%
CCCCN(C)CCNC(=O)c1nn(-c2ccc(OC)c(Cl)c2)c(=O)c2c1c1ccccc1n2C -16.5%
Cc1nn(-c2ccccc2)c2sc(C(=O)Nc3ccc(Cl)cc3Cl)cc12 -15.9%
Cc1cc(C)c(S(=O)(=O)NCc2ccc3c(c2)CCN3C(=O)c2ccccc2)c(C)c1 -10.7%
COC(=O)C1=C(CS(=O)(=O)c2ccc(C)cc2C)NC(=O)NC1c1ccc(C)cc1 (stereo not drawn) 0.0583%
CCN(CC)c1ccc2cc(-c3nnc(Nc4ccc(C)cc4)s3)c(=O)oc2c1 -21.5%
Cc1cc2c(cc1S(=O)(=O)N(CCN(C)C)Cc1ccccc1)OCC(=O)N2 3.46%
COC(=O)c1ccc(NC(=O)c2c(NCc3cccc(F)c3)sc3c2CCCC3)cc1 -10.6%
CCC(Oc1ccccc1F)C(=O)Nc1cc(-c2ccccc2)no1 (stereo not drawn) -10.9%
COc1ccccc1C(c1c(O)cc(C)n(Cc2ccco2)c1=O)N1CCCCC1 (stereo not drawn) -18.8%
Cc1cccc(N2CCN(S(=O)(=O)c3cc(C(=O)Nc4ccc(Oc5ccccc5)cc4)ccc3F)CC2C)c1 (stereo not drawn) -16.3%
CCOC(=O)C1CCCN(S(=O)(=O)c2cc(-c3onc(C)c3C)ccc2OC)C1 (stereo not drawn) -10.6%
CCc1c(-c2ccccc2)nc2ccccc2c1C(=O)NC(C)c1ccccc1 (stereo not drawn) 4.92%
NC(=O)n1c(O)c(C(=O)c2cccs2)c2cc(Cl)ccc21 -11.9%
CCOc1ccccc1NC(=O)c1nc(S(=O)(=O)Cc2cccc(C)c2)ncc1Cl 10.3%
CCOc1ccccc1NC(=O)CSc1c2c(nc3ccc(Cl)cc13)CCCC2 -9.81%
COc1ccc(S(=O)(=O)N(CC(=O)NCCSc2ccc(C)cc2)c2ccc(C)cc2)cc1 -8.15%
CCCN(c1ccccc1F)S(=O)(=O)c1ccc2c(c1)C(C)(C)C(=O)N2C -13.3%
CC(=O)N1CCC(N(Cc2ccc(C)o2)C(=O)Nc2ccccc2F)CC1 -10.5%
Cc1nc2c(c(C)c1CCC(=O)NCc1ccc(F)cc1)c(=O)n(C)c(=O)n2C -8.82%
CC1CCc2onc(C(=O)Nc3ccc(Cl)cc3)c2C1 (stereo not drawn) -9.22%
COc1ccc(-c2noc(CNC(=O)c3cc(OC)c(OC)c(OC)c3)n2)cc1 -5.59%
Cc1[nH]c2ccc(C(=O)NCCCN3CCCCC3)cc2c1C 1.04%
COc1cccc(-c2nc(-c3ccc(Br)o3)no2)c1 -17.1%
O=C(NCc1ccccc1)c1cc(Sc2cccc(Cl)c2)nc2ccccc12 -12.1%
CCOc1c(Br)cc(C2C=C(C(=O)O)Nc3ncnn32)cc1OC (stereo not drawn) -14%
CC(=O)N1c2ccccc2C(=O)C1N1CCN(c2ccc(Cl)cc2)CC1 (stereo not drawn) -10.5%
CCOC(=O)c1cc(OC(=O)c2ccccc2F)n(-c2ccccc2)n1 -12.7%
CCOc1ccccc1NC(=O)Cn1nnc(C(=O)NCc2cccs2)c1N -16.8%
Cc1ccccc1Nc1nn2c(=O)c3ccc(C(=O)NCC(C)c4ccccc4)cc3nc2s1 (stereo not drawn) -20.3%
CC1=C(c2ccc(C(C)C)cc2)S(=O)(=O)N=C1N1CCN(c2ccccc2F)CC1 -13.3%
CC(C)C[C@H](N)c1nnc(SCc2ccc(Cl)cc2Cl)o1 -10.2%
Cc1ccc(-c2nc(S(=O)(=O)c3ccc(F)cc3)c(N3CCN(c4ccccc4)CC3)o2)cc1 -11.8%
CCOC(=O)c1ccccc1NC(=O)CCOc1ccccc1 -9.17%
Cc1cccc(N2CCN(C(=O)NCc3noc4ccccc34)CC2)c1C -18.7%
COc1ccc(CNC(=O)c2cc3c(=O)[nH]c4ccccc4c3s2)cc1 -9.95%
COCCCNC(=O)C1CCCN(C(=O)c2cnn(-c3ccc(F)cc3)c2-n2cccc2)C1 (stereo not drawn) 0.512%
Cc1ccn2c(Nc3ccccc3C)c(-c3ccccn3)nc2c1 -8.05%
CCN(Cc1ccccc1)C(=O)c1nc(-c2cccc(F)c2)n2c1CCCCC2 -3.19%
